Some of the results follow.
How the values were obtained:
HSkMC = human skeletal muscle cells; experiment: cytotoxicity call (relative viability < 0.9); conditions: 10 µM
HepG2 = experiment: cytotoxicity call (relative viability < 0.9); conditions: 10 µM
S. aureus RN4220 = experiment: growth inhibition call (relative growth <= 0.2); conditions: 50 µM

CC(C)Cc1ccc(C(C)C(=O)O)cc1 (stereo unspecified)
inactive: cytotoxicity call (HSkMC) | cytotoxicity call (HepG2) | growth inhibition call (S. aureus RN4220)

C[C@@H]1CCCCO[C@@H](CN(C)Cc2ccc(C(F)(F)F)cc2)[C@@H](C)CN([C@H](C)CO)C(=O)c2cc(NC(=O)NC3CCCCC3)ccc2O1
inactive: cytotoxicity call (HSkMC) | cytotoxicity call (HepG2) | growth inhibition call (S. aureus RN4220)

CC12CCC3c4ccc(OC(=O)c5ccccc5)cc4CCC3C1CCC2O (stereo unspecified)
inactive: cytotoxicity call (HSkMC) | cytotoxicity call (HepG2) | growth inhibition call (S. aureus RN4220)

C[C@@H]1CCCCO[C@@H](CN(C)C)[C@H](C)CN([C@@H](C)CO)C(=O)c2cc(NC(=O)CCCN(C)C)ccc2O1
inactive: cytotoxicity call (HSkMC) | cytotoxicity call (HepG2) | growth inhibition call (S. aureus RN4220)

O=C(C[C@@H]1CC[C@H]2[C@@H](COC[C@H](O)CN2S(=O)(=O)c2ccccc2)O1)NCc1ccc(-c2ccccc2)cc1
inactive: cytotoxicity call (HSkMC) | cytotoxicity call (HepG2) | growth inhibition call (S. aureus RN4220)

C[C@@H]1CCCCO[C@@H](CN(C)CC2CCCCC2)[C@@H](C)CN([C@@H](C)CO)C(=O)c2cc(NC(=O)Cc3ccccc3)ccc2O1
inactive: cytotoxicity call (HSkMC) | cytotoxicity call (HepG2) | growth inhibition call (S. aureus RN4220)

O=C(CN1CCOCC1)N[C@H]1CC[C@H](CCNC(=O)Nc2cc(F)ccc2F)O[C@@H]1CO
inactive: cytotoxicity call (HSkMC) | cytotoxicity call (HepG2) | growth inhibition call (S. aureus RN4220)

C[C@@H]1CCCCO[C@H](CN(C)C(=O)Nc2ccc(F)cc2)[C@@H](C)CN([C@@H](C)CO)C(=O)c2cc(NC(=O)CCCN(C)C)ccc2O1
inactive: cytotoxicity call (HSkMC) | cytotoxicity call (HepG2) | growth inhibition call (S. aureus RN4220)

CCc1ccc(NC(=S)Nc2ccccc2C(C)C)cc1
inactive: cytotoxicity call (HSkMC) | cytotoxicity call (HepG2) | growth inhibition call (S. aureus RN4220)

C[C@H](CO)N1C[C@H](C)[C@H](CN(C)Cc2ccc(-c3ccccc3)cc2)OCc2ccccc2-c2ccccc2C1=O
inactive: cytotoxicity call (HSkMC) | cytotoxicity call (HepG2) | growth inhibition call (S. aureus RN4220)

CC(C)c1ccc(C(C)(C)CO)cc1
inactive: cytotoxicity call (HSkMC) | cytotoxicity call (HepG2) | growth inhibition call (S. aureus RN4220)

COc1ccc(S(=O)(=O)N(C)C[C@@H]2OCc3cnnn3CCCC(=O)N([C@@H](C)CO)C[C@@H]2C)cc1
inactive: cytotoxicity call (HSkMC) | cytotoxicity call (HepG2) | growth inhibition call (S. aureus RN4220)

C[C@@H]1CN([C@H](C)CO)C(=O)c2cccc(NC(=O)c3ccc(-c4nccs4)cc3)c2O[C@H]1CN(C)Cc1ccc(C(=O)O)cc1
inactive: cytotoxicity call (HSkMC) | cytotoxicity call (HepG2) | growth inhibition call (S. aureus RN4220)

CN(C)C1C(O)=C(C(N)=O)C(=O)C2(O)C(O)=C3C(=O)c4c(O)ccc(Cl)c4C(C)(O)C3CC12.Cl (stereo unspecified)
inactive: cytotoxicity call (HSkMC) | cytotoxicity call (HepG2) | growth inhibition call (S. aureus RN4220)

Clc1nccc2ccccc12
inactive: cytotoxicity call (HSkMC) | cytotoxicity call (HepG2) | growth inhibition call (S. aureus RN4220)

C[C@@H]1CN([C@H](C)CO)C(=O)CCCn2cc(nn2)CO[C@@H]1CN(C)C(=O)Nc1ccc(N2CCCCC2)cc1
inactive: cytotoxicity call (HSkMC) | cytotoxicity call (HepG2) | growth inhibition call (S. aureus RN4220)

C[C@@H]1CN([C@@H](C)CO)C(=O)c2cc(NC(=O)CCC(F)(F)F)ccc2O[C@H]1CN(C)Cc1ccc(Oc2ccccc2)cc1
inactive: cytotoxicity call (HSkMC) | cytotoxicity call (HepG2) | growth inhibition call (S. aureus RN4220)

CC(C)(C)NC[C@@H](O)c1ccc(O)c(CO)c1.CC(C)(C)NC[C@@H](O)c1ccc(O)c(CO)c1.O=S(=O)(O)O
inactive: cytotoxicity call (HSkMC) | cytotoxicity call (HepG2) | growth inhibition call (S. aureus RN4220)

O=C1C2C[C@H]3C=C[C@]2(CN1C1CC1)O3 (stereo partly specified)
inactive: cytotoxicity call (HSkMC) | cytotoxicity call (HepG2) | growth inhibition call (S. aureus RN4220)

CC(C(=O)O)C(=O)O
inactive: cytotoxicity call (HSkMC) | cytotoxicity call (HepG2) | growth inhibition call (S. aureus RN4220)

C[C@@H]1CN([C@H](C)CO)C(=O)c2cc(C#Cc3cccc(F)c3)cnc2O[C@H]1CN(C)C(=O)C1CCOCC1
inactive: cytotoxicity call (HSkMC) | cytotoxicity call (HepG2) | growth inhibition call (S. aureus RN4220)

C[C@H]1CCCCO[C@H](CN(C)C(=O)Nc2ccc(C(F)(F)F)cc2)[C@@H](C)CN([C@@H](C)CO)C(=O)c2cc(NC(=O)Nc3ccc4c(c3)OCO4)ccc2O1
inactive: cytotoxicity call (HSkMC) | cytotoxicity call (HepG2) | growth inhibition call (S. aureus RN4220)

Cc1cn(C2CC(N=[N+]=[N-])C(CO)O2)c(=O)[nH]c1=O (stereo unspecified)
inactive: cytotoxicity call (HSkMC) | cytotoxicity call (HepG2) | growth inhibition call (S. aureus RN4220)

COc1ccc(S(=O)(=O)N(C)C[C@H]2OCCCC[C@@H](C)Oc3ccc(NC(=O)CCC(F)(F)F)cc3C(=O)N([C@H](C)CO)C[C@H]2C)cc1
inactive: cytotoxicity call (HSkMC) | cytotoxicity call (HepG2) | growth inhibition call (S. aureus RN4220)

C[C@@H]1CN([C@H](C)CO)C(=O)c2cc(NS(=O)(=O)c3ccccc3)ccc2O[C@@H](C)CCCCO[C@@H]1CN(C)C(=O)c1ccccc1
inactive: cytotoxicity call (HSkMC) | cytotoxicity call (HepG2) | growth inhibition call (S. aureus RN4220)

COc1ccc(NC(=O)N(C)C[C@@H]2Oc3ccc(NC(=O)CCN4CCOCC4)cc3C(=O)N([C@H](C)CO)C[C@@H]2C)cc1
inactive: cytotoxicity call (HSkMC) | cytotoxicity call (HepG2) | growth inhibition call (S. aureus RN4220)

O=C(C[C@@H]1CC[C@H]2[C@@H](COC[C@H](O)CN2Cc2cc(F)ccc2F)O1)N[C@@H]1CCN(Cc2ccccc2)C1
inactive: cytotoxicity call (HSkMC) | cytotoxicity call (HepG2) | growth inhibition call (S. aureus RN4220)

Source: the antibiotic and cytotoxicity screens of Wong et al. (2023)
